This is an account of results in PubChem BioAssay AID1645882 (National Center for Advancing Translational Sciences (NCATS), 2021).

About 120 (0.75%) of roughly 16,000 compounds were called active. Inconclusive results (about 4%) are left out. Calls follow the shape of the dose curve; as a rule, active = well fitted inhibition curve with a large enough effect; inconclusive = small, poorly fitted or top-dose-only effect; inactive = no such curve, though single readings can be large or run the other way. The list shows a part of the results.

The assay has as its target Rap guanine nucleotide exchange factor 3 (Homo sapiens) (UniProt O95398). The experiment in a line: Validation qHTS for antagonist of cAMP-regulated guanine nucleotide exchange factor 3 (EPAC1).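 Also: plate controls were DMSO for no effect and ATA control for full effect; nearly all actives have a fitted effect of over 75% in size.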 The settings on record: EPAC1 Rap1B-BODIPY-GDP exchange, fluorescence; series mostly up to 150 µM; activity change, negative = inhibition: at the top concentration. The method in brief: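 EPAC1 (100 nM) mixed with 250 nM RAP1B-BODIPY-GDP and 50 uM GDP; compounds in concentration series, 5 min at room temperature. Fluorescence (ex 480/em 540 nm) read every 5 min for 30 min; normalized to ATA control and DMSO.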
Chain of UniProt O95398 (O95398 whole entry, looked up): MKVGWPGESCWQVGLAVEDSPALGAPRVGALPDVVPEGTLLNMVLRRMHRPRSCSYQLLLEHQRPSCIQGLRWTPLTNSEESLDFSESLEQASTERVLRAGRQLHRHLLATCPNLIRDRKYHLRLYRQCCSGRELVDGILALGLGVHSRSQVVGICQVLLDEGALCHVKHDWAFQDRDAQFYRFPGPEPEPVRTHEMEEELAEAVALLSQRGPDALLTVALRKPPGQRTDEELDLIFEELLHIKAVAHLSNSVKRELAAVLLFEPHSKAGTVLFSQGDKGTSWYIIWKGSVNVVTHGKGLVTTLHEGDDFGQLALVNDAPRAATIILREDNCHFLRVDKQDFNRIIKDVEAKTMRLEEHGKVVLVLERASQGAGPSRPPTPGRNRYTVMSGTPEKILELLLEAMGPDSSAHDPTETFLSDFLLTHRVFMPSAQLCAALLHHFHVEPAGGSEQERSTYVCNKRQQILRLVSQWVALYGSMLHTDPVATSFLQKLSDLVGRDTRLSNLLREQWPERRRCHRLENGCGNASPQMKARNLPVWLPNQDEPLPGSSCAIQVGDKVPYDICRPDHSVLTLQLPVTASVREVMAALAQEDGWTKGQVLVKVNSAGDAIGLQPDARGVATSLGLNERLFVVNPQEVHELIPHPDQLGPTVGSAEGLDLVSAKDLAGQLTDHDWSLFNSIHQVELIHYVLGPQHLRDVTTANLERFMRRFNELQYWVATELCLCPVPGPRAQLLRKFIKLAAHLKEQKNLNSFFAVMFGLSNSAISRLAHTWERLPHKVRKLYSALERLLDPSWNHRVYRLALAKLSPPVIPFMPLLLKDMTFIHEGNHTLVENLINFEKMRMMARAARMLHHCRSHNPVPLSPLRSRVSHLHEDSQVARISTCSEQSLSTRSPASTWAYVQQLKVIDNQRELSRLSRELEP
With `O=C(c1ccc2[nH]ccc2c1)N1CCOc2ccc(CN3CCN(c4ccccn4)CC3)cc2C1`, the “activity change, negative = inhibition” value is inactive: 11.2%.
The figure for `CN1CCN(c2ncc3nc(CCc4ccccc4)c(=O)n(Cc4cccs4)c3n2)CC1` is inactive: -18%; for `c1ccc2c(c1)CCCC2C1=NCCN1` (configuration not stated) it is “inactive”; for `COc1cccc(CCc2ccccc2OCC(CN(C)C)OC(=O)CCC(=O)O)c1` (configuration not stated) it is inactive: 18.3%.
Under `CNc1ncnc2c1ncn2[C@@H]1O[C@H](CO)[C@@H](O)[C@H]1O` stands “inactive”; under `CC(C)C[C@H](NC(=O)[C@@H](Cc1c[nH]c2ccccc12)NC(=O)[C@H](Cc1ccc(O)cc1)NC(=O)[C@H](CO)NC(=O)[C@H](Cc1c[nH]c2ccccc12)NC(=O)[C@H](Cc1cnc[nH]1)NC(=O)[C@@H]1CCC(=O)N1)C(=O)N[C@@H](CCCN=C(N)N)C(=O)N1CCC[C@@H]1C(=O)NCC(N)=O`, inactive: 20.5%; under `CC(C)OC(=O)C(C(=O)OC(C)C)=C1SC=CS1`, inactive: -1.37%.
The figure for `CSCC[C@@H](N)C(=O)O` is inactive: -3.01%; for `N#Cc1cccc(NC(=O)N2CC3(CCN(C(=O)c4cccc(F)c4)CC3)C2)c1` it is inactive: -13.3%; for `O=C(c1ccc(F)cc1)C1CCN(CCCCc2ccccc2)CC1` it is inactive: 12.9%.
On to `CC(NC(=O)c1ccco1)c1nnc2n1CCN(Cc1cccc(Cl)c1)CC2` (configuration not stated), for which the “activity change, negative = inhibition” value is inactive: 5.3%.
Under `CCOC(=O)C(C#N)=C(c1ccccc1)c1ccccc1` stands inactive: -1.48%.
The figure for `CS(=O)(=O)Nc1cc2occ(NC=O)c(=O)c2cc1Oc1ccccc1` is inactive: 41.3%.
Under `N[C@@H](CC(=O)O)C(=O)O` stands “inactive”; under `O=C(O)c1cc(-c2ccc(-c3c(-c4ccc5c(c4)OCO5)noc3-c3ccsc3)cc2)nc2ccccc12`, inactive: 20.3%; under `CCOc1cccc(CN2CCC(n3cc(C(=O)N4CCCCC4)nn3)CC2)c1O`, inactive: 17.1%.
Regarding `O=C(NCC1Cc2cccc(-c3cnccn3)c2O1)c1ccc(F)c(Cl)c1` (configuration not stated), the “activity change, negative = inhibition” value is inactive: 11.6%.
In the case of `O=C1NCCN1c1ncc([N+](=O)[O-])s1`, the “activity change, negative = inhibition” value was inactive: -11.8% [at 75.8 µM].
The figure for `C[Se]CC[C@H](N)C(=O)O` is inactive: 17.2%; for `O=C(/C=C(\O)c1ccccc1)c1ccccc1O` it is inactive: -18.9%; for `COc1ccc(-c2nc3cc(C)ccc3cc2CN(C(=O)c2cc(C)nn2C)C2CC2)cc1OC` it is inactive: -5.62%.
The figure for `O=C(O)C1=C[C@@H](O)[C@@H](O)[C@H](O)C1` is inactive: 5.29%.
Under `O=S(=O)(c1ccccc1)N1CCC2(CCN(Cc3nccs3)CC2)CC1` stands inactive: 13.1%.
Consider `C1N2CN3CN1CN(C2)C3`, for which the activity change, negative = inhibition entry was “inactive”.
Under `COC(=O)[C@@H](CC(C)C)N(Cc1ccccc1)S(=O)(=O)N(Cc1ccccc1)[C@@H](CC(C)C)C(=O)OC` stands inactive: -27.9%.
The figure for `CC(=O)NCCNc1nc(-c2ccc3c(c2)OCO3)nc2ccccc12` is inactive: 8.65%.
The figure for `Cc1nc2cnc(N3CCOCC3)nc2n(Cc2ccc(F)cc2)c1=O` is inactive: 16%.
